# Measured values as given in patent US20180289802A1 (CELGENE, published 2018).
# Assays:
# [1] = target: T1, human PD-1 (soluble / purified antigen, construct not stated) (human, UniProt Q15116 partial chain, limits assumed); assay: Binding ELISA; drug substance Batch A, 5°C, T = 0
# T1 construct: also called soluble antigen
# [2] = target: T1, human PD-1 (soluble / purified antigen, …); assay: Binding ELISA; drug substance Batch A, -20°C, T = 0
# [3] = target: T1, human PD-1 (soluble / purified antigen, …); assay: Binding ELISA; drug substance Batch B, 5°C, 1 month
# [4] = target: T1, human PD-1 (soluble / purified antigen, …); assay: Binding ELISA; drug substance Batch A, 5°C, 3 months
# [5] = target: T1, human PD-1 (soluble / purified antigen, …); assay: Binding ELISA; drug substance Batch A, -70°C, 1 month
# [6] = target: T1, human PD-1 (soluble / purified antigen, …); assay: Binding ELISA; drug substance Batch B, -70°C, 1 month
# [7] = target: T1, human PD-1 (soluble / purified antigen, …); assay: Binding ELISA; drug substance Batch A, -70°C, 3 months
# [8] = target: T1, human PD-1 (soluble / purified antigen, …); assay: Binding ELISA; drug substance Batch A, -70°C, 6 months
# [9] = target: T1, human PD-1 (soluble / purified antigen, …); assay: Binding ELISA; drug substance Batch B, -70°C, 3 months
# [10] = target: T1, human PD-1 (soluble / purified antigen, …); assay: Binding ELISA; drug substance Batch B, 25°C/60% RH, T = 0
# [11] = target: T1, human PD-1 (soluble / purified antigen, …); assay: Binding ELISA; drug product Batch A, 5°C upright, 1 month
# [12] = target: T1, human PD-1 (soluble / purified antigen, …); assay: Binding ELISA; drug product Batch A, 5°C upright, 3 months
# [13] = target: T1, human PD-1 (soluble / purified antigen, …); assay: Binding ELISA; drug product Batch A, 5°C inverted, 1 month
# [14] = target: T1, human PD-1 (soluble / purified antigen, …); assay: Binding ELISA; drug product Batch A, 5°C inverted, initial
# [15] = target: T1, human PD-1 (soluble / purified antigen, …); assay: Binding ELISA; drug product Batch B, 5°C inverted, initial
# [16] = target: T1, human PD-1 (soluble / purified antigen, …); assay: Binding ELISA; drug substance Batch B, 25°C/60% RH, 1 month
# [17] = target: T1, human PD-1 (soluble / purified antigen, …); assay: Binding ELISA; drug substance Batch A, 25°C/60% RH, 0.5 month
# [18] = target: T1, human PD-1 (soluble / purified antigen, …); assay: Binding ELISA; drug substance Batch B, 25°C/60% RH, 0.5 month
# [19] = target: T1, human PD-1 (soluble / purified antigen, …); assay: Binding ELISA; drug product Batch B, 25°C/60% RH upright, 1 month
# [20] = target: T1, human PD-1 (soluble / purified antigen, …); assay: Binding ELISA; drug product Batch B, 25°C/60% RH upright, initial
# [21] = target: T1, human PD-1 (soluble / purified antigen, …); assay: Binding ELISA; drug product Batch A, 25°C/60% RH upright, 3 months
# [22] = target: T1, human PD-1 (soluble / purified antigen, …); assay: Binding ELISA; drug product Batch B, 25°C/60% RH inverted, initial
# [23] = target: T1, human PD-1 (soluble / purified antigen, …); assay: Binding ELISA; drug product Batch A, 25°C/60% RH inverted, 3 months
# [24] = target: T1, human PD-1 (soluble / purified antigen, …); assay: Binding ELISA; drug product Batch B, 25°C/60% RH inverted, 0.5 month
# [25] = target: T2, human PD-1 extracellular domain (residues 32-160), expressed in E. coli and refolded (human, UniProt Q15116 partial chain); assay: Biacore T200; antibody captured on Fc-specific anti-human IgG; human PD-1 (32-160) flowed at 100 nM to 200 pM
# T2 construct: also called PD1_002; internally produced human PD1 antigen
# [26] = target: T2, human PD-1 extracellular domain …; assay: Biacore T200, antibody captured on protein A or anti-human IgG, human PD1 antigen 0.3 to 200 nM, 1:1 fit; range over formulations and storage conditions
binder,measurement,setting,value
"PD1AB-6-K3 (antibody, human IgG1, kappa, also called PD1AB-6-IgG1-K322A; PD1AB-6-K322A) heavy: EVQLVQSGAEVKKPGATVKISCKASGFNIKDTYMHWVQQAPGKGLEWMGRIDPANGDRKYDPKFQGRVTITADTSTDTAYMELSSLRSEDTAVYYCARSGPVYYYGSSYVMDYWGQGTTVTVSS[human IgG1 constant region with changes not written out] light: DIVMTQSPDSLAVSLGERATINCKSGQSVLYSSNQKNFLAWYQQKPGQPPKLLIYWASTRESGVPDRFSGSGSGTDFTLTISSLQAEDVAVYYCHQYLYSWTFGQGTKLEIKRTVAAPSVFIFPPSDEQLKSGTASVVCLLNNFYPREAKVQWKVDNALQSGNSQESVTEQDSKDSTYSLSSTLTLSKADYEKHKVYACEVTHQGLSSPVTKSFNRGEC","Binding ELISA, ratio of Reference EC50/Sample EC50",[1],99%
same,"Binding ELISA, ratio of Reference EC50/Sample EC50",[2],99%
same,"Binding ELISA, ratio of Reference EC50/Sample EC50",[3],97%
same,"Binding ELISA, ratio of Reference EC50/Sample EC50",[4],86%
same,"Binding ELISA, ratio of Reference EC50/Sample EC50",[5],80%
same,"Binding ELISA, ratio of Reference EC50/Sample EC50",[6],84%
same,"Binding ELISA, ratio of Reference EC50/Sample EC50",[7],88%
same,"Binding ELISA, ratio of Reference EC50/Sample EC50",[8],91%
same,"Binding ELISA, ratio of Reference EC50/Sample EC50",[9],68%
same,"Binding ELISA, ratio of Reference EC50/Sample EC50",[10],76%
same,"Binding ELISA, ratio of Reference EC50/Sample EC50",[11],94%
same,"Binding ELISA, ratio of Reference EC50/Sample EC50",[12],97%
same,"Binding ELISA, ratio of Reference EC50/Sample EC50",[13],103%
same,"Binding ELISA, ratio of Reference EC50/Sample EC50",[14],86%
same,"Binding ELISA, ratio of Reference EC50/Sample EC50",[15],82%
same,"Binding ELISA, ratio of Reference EC50/Sample EC50",[16],69%
same,"Binding ELISA, ratio of Reference EC50/Sample EC50",[17],87%
same,"Binding ELISA, ratio of Reference EC50/Sample EC50",[18],72%
same,"Binding ELISA, ratio of Reference EC50/Sample EC50",[19],92%
same,"Binding ELISA, ratio of Reference EC50/Sample EC50",[20],82%
same,"Binding ELISA, ratio of Reference EC50/Sample EC50",[21],87%
same,"Binding ELISA, ratio of Reference EC50/Sample EC50",[22],82%
same,"Binding ELISA, ratio of Reference EC50/Sample EC50",[23],105%
same,"Binding ELISA, ratio of Reference EC50/Sample EC50",[24],76%
same,Kd,[25],~19 nM
same,Kd,[26],25.4 to 27.2 nM
